From PMC5083789 come the findings set out here.

Chains of the proteins cited; added tags and fusions are not shown.
UniProt P0A3F4: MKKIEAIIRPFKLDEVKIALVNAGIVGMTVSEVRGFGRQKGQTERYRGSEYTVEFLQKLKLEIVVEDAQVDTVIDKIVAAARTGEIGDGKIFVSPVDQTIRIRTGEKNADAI

Results are given in words; binding and its absence hold for the method and conditions named. Some results given as binding are weak or reduced against the parent protein; the word gives no strength. For some of these results: Where a sequence is shown, tags or fusion partners need not be part of it.

B1: PipX 2-70 (helix B deleted), GAL4AD or GAL4BD fusion (domain or fragment, UniProt Q7X386 2-70)
chain: ASENYLNHPTFGLLYQICSFGDSKELFATLYAQRLFFLVAFDARGTRFEPIGRNEARMLVDNRLRQLRR
B2: PipX, full-length GAL4AD or GAL4BD fusion (protein, UniProt Q7X386 1-89)
chain: MASENYLNHPTFGLLYQICSFGDSKELFATLYAQRLFFLVAFDARGTRFEPIGRNEARMLVDNRLRQLRRDASLQEYNQLQQVFKQTFL
B3: PipX R54C, GAL4BD fusion (protein, UniProt Q7X386 1-89)
chain: MASENYLNHPTFGLLYQICSFGDSKELFATLYAQRLFFLVAFDARGTRFEPIGCNEARMLVDNRLRQLRRDASLQEYNQLQQVFKQTFL
B4: PipX Y32A, GAL4AD or GAL4BD fusion (protein, UniProt Q7X386 1-89)
chain: MASENYLNHPTFGLLYQICSFGDSKELFATLAAQRLFFLVAFDARGTRFEPIGRNEARMLVDNRLRQLRRDASLQEYNQLQQVFKQTFL
B5: PipX L65Q, GAL4BD fusion (protein, UniProt Q7X386 1-89)
chain: MASENYLNHPTFGLLYQICSFGDSKELFATLYAQRLFFLVAFDARGTRFEPIGRNEARMLVDNRQRQLRRDASLQEYNQLQQVFKQTFL
B6: PipX L80Q, GAL4AD or GAL4BD fusion (protein, UniProt Q7X386 1-89)
chain: MASENYLNHPTFGLLYQICSFGDSKELFATLYAQRLFFLVAFDARGTRFEPIGRNEARMLVDNRLRQLRRDASLQEYNQQQQVFKQTFL
B7: PipX E4A, GAL4BD fusion (protein, UniProt Q7X386 1-89)
chain: MASANYLNHPTFGLLYQICSFGDSKELFATLYAQRLFFLVAFDARGTRFEPIGRNEARMLVDNRLRQLRRDASLQEYNQLQQVFKQTFL
B8: PipX R35A, GAL4AD or GAL4BD fusion (protein, UniProt Q7X386 1-89)
chain: MASENYLNHPTFGLLYQICSFGDSKELFATLYAQALFFLVAFDARGTRFEPIGRNEARMLVDNRLRQLRRDASLQEYNQLQQVFKQTFL

Substrate in the first experiment: PII (glnB product), full-length GAL4AD or GAL4BD fusion (Synechococcus elongatus PCC7942) (UniProt P0A3F4)
Description: two-hybrid; GAL4AD and GAL4BD fusions in S. cerevisiae PJ696/Y187 diploids; HIS3 and ADE2 reporters, growth on medium lacking His or Ade.
B1: the binding entry is recorded as “binds”.

As to B2, the binding result was “binds”. Still for that read-out and setting: for B3 the value was “binds”; for B4, “no binding”; for B5, “binds”.

Regarding B6, the binding result is listed as “binds”. With B7, the binding result is “no binding”. Same read-out and setting: then B8, with “binds”.

The target of another experiment is PII (glnB product), full-length GAL4AD or GAL4BD fusion (Synechococcus elongatus PCC7942) (UniProt P0A3F4). Description: yeast three-hybrid; GAL4AD fusion as prey, GAL4BD fusion and HA:PipX (bridge) from a pBridge plasmid; PJ696/Y187 diploids; HIS3 and ADE2 reporters, growth on medium lacking His or Ade; wild-type proteins, or one mutant of PipX or of PII with the other two proteins wild type.
“PII (glnB product), full-length GAL4AD or GAL4BD fusion (from UniProt P0A3F4 1-112)”: the binding entry is listed as “binds”.

For the next experiment the target is unchanged. Description: two-hybrid; GAL4AD and GAL4BD fusions in S. cerevisiae PJ696/Y187 diploids; HIS3 and ADE2 reporters, growth on medium lacking His or Ade. This is another data set of the same source.
For “PII (glnB product), full-length GAL4AD or GAL4BD fusion (from UniProt P0A3F4 1-112)”, the binding result is given as “binds”.
